# Measured values taken from PubChem BioAssay AID624417 (National Center for Advancing Translational Sciences (NCATS), 2012).
# Out of some 410,000 compounds screened, about 6,400 (1.6%) were called active. Inconclusive results, whose numbers are uncertain, are shown with a selection of clear calls. Calls come from the whole dose curve; as a rule, active = well fitted inhibition curve with a large enough effect; inconclusive = small, poorly fitted or top-dose-only effect; inactive = no such curve, though single readings can be large or run the other way. Potencies of inconclusive entries are left out as doubtful fits.
# Biological target: Glucagon-like peptide 1 receptor (Homo sapiens) (UniProt P43220)
# Test: qHTS of GLP-1 Receptor Inverse Agonists (Inhibition Mode); note: nearly all actives have a fitted effect of over 55% in size
# Settings: HEK293 GLP-1R CRE-luciferase, luminescence, 24 h, GLP-1R form is constitutively active; activity change, negative = inhibition: at 38.3 µM (top of the series) unless noted
# Procedure, shortened: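 HEK293 cells stably co-expressing a cAMP-responsive luciferase reporter and constitutively active GLP-1R were seeded, incubated 12 h, then exposed to compounds for 24 h at 37 C. Luminescence was read 12 min after detection reagent; inverse agonists lower signal.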
# % is set by controls: 0 for no effect and ±100 for the full control effect; potency is the fitted concentration of half-maximal effect; tags give direction and shape of the fitted curve.
# Sequence of UniProt P43220 (P43220 whole entry, looked up): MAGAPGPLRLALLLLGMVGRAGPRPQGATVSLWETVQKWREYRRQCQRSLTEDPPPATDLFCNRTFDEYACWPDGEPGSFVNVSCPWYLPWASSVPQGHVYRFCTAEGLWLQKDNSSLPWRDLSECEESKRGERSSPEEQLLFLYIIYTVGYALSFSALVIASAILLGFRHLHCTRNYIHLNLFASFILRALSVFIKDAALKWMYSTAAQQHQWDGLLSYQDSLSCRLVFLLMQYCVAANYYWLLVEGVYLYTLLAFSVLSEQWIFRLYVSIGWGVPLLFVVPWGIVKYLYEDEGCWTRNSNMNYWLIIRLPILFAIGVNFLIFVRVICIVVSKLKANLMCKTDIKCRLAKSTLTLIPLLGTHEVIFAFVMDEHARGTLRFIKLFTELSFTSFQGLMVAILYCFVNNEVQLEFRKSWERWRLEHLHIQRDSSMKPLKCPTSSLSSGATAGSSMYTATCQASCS
SMILES,Potency,"activity change, negative = inhibition"
Cc1ccccc1Cc1c(C)nc2c(-c3ccccc3)c(C)[nH]n2c1=O,"inconclusive [inhibitor, partial curve, poor fit]",
O=C(CCCC(=O)N1CCN(c2cccc(Cl)c2)CC1)c1ccccc1,"inconclusive [inhibitor, single point]",
CCCCCCCn1c(=N)n(CC(=O)c2ccco2)c2ccccc21,"inconclusive [inhibitor, single point]",
CCOc1ccc(NC(=O)CN2CCN(CC(=O)c3ccc(OC)c(OC)c3)CC2)cc1,,inactive: 2.28%
CN(C(=O)Cn1c(=O)n(Cc2ccc(C(=O)NCc3ccc4c(c3)OCO4)cc2)c(=O)c2ccccc21)c1ccccc1,,inactive: -17.1%
O=C(Nc1nc(-c2ccccn2)cs1)c1ccc(F)c(S(=O)(=O)N2CCOCC2)c1,"inconclusive [inhibitor, full curve]",
Cc1cc2c(cc1S(=O)(=O)Nc1cccc(F)c1C)NC(=O)CO2,"inconclusive [inhibitor, single point]",
CN(C(=O)COC(=O)Cc1ccc(Cl)cc1)C1CCCCC1,,inactive: -4.37%
CCN(c1ccccc1)S(=O)(=O)c1ccc(Oc2ccc([N+](=O)[O-])cc2)nc1,"inconclusive [inhibitor, partial curve, poor fit]",
COc1ccc(CCC(=O)N2CCCSC2=Nc2ccc(C(C)=O)cc2)cc1,"inconclusive [inhibitor, partial curve, poor fit]",
Cc1c(Cl)cccc1NC(=O)CCC(=O)N/N=C/c1ccc[nH]1,"inconclusive [inhibitor, full curve, poor fit]",
O=c1c(O)c(-c2ccc3c(c2)OCO3)oc2ccccc12,"inconclusive [inhibitor, full curve, poor fit]",
CCCCn1c(=N)n(CC(=O)C(C)(C)C)c2ccccc21,"inconclusive [inhibitor, partial curve, poor fit]",
COc1cc(C(=O)OCC(=O)Nc2cc(S(=O)(=O)N3CCOCC3)ccc2C)ccc1OCC(C)C,"inconclusive [inhibitor, partial curve, poor fit]",
CC1(CCBr)C(=O)N(c2ccccc2)c2ccccc21 (configuration not stated),"inconclusive [inhibitor, single point]",
O=C(COc1ccccc1)NCC(c1ccco1)N1CCN(c2ccccc2)CC1 (configuration not stated),"inconclusive [inhibitor, partial curve, poor fit]",
C/C(=C\C(=O)c1ccc(F)cc1)NCc1ccc2c(c1)OCO2,"inconclusive [inhibitor, partial curve, poor fit]",
